# The other results are listed elsewhere or left out.
# Test system: PfAP2-HC AP2 domain (GST-tagged)
# Experiment: gcPBM binding intensity (ln(normalized median fluorescence intensity)); higher = stronger DNA binding
# How it was run: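 Binding of GST-tagged P. falciparum DNA-binding domains, expressed in E. coli and used at about 25 μg on average, was carried out for 1 h in 1× PBS containing 1% milk, 0.2 mg/ml BSA, 0.5% salmon testes DNA and 0.03% Triton X-100. The target was an Agilent 4 × 180k array of primer-extended double-stranded 36-bp intergenic genomic probes plus negative controls, read with Alexa488 anti-GST antibody at 488 nm. Binding intensity is the highest Masliner-normalised natural-log median intensity across replicate spots of either probe orientation.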
row,Sequence,gcPBM binding intensity (ln)
1,AAAATATAATATAATGCACACATAAAAAAAAAAAAA [CACACA_site7989],9.84
2,AAAAAAAAGGAAATAACACACATGTATATATCTATA [CACACA_site6856],9.84
3,TTCATATAGAATTGTACACACAAAAACGACATTGTG [CACACA_site7061],9.81
4,ATATATATATGTATGTATATATATATATATGTTTGA [GTGCAC_negctrl_site561],9.79
5,GGGGACGCGGGTGGGGGTACTCACACTATGCAAAAT [XGTACX_site7745],9.74
6,GTATCAATAAAAAACAGTACATATATAATATATTTA [XGTACX_site1083],9.62
7,TGAGATAACAAAAGTTGTACTTTTTTTTTTTTTTTT [XGTACX_site3004],9.38
8,AAATATATATAAAACTCACACATTATCTTATAACCA [CACACA_site5268],9.82
9,TTTAATAAAAAAATTAAAAATAAAGAAAAAAAAAAA [CACACA_negctrl_site1464],9.42
10,ATGTATGGAAATTTTACACACAAGAGTAGTTTAAAA [CACACA_site1710],9.9
11,AAAAAATAATATTGTACACACATAAATTCTTTGTCA [CACACA_site5187],9.82
12,TATGTGTATACAATATGTACATATGTTAACTTGTAT [XGTACX_site872],9.78
13,GCGTAATCTATTTGCACACTTATTTGTTCTTAAAAA [CACACA_site672],9.73
14,TTAAATAAATATAAGTGTACATACACACTTTACAAT [XGTACX_site6348],9.72
15,GCATATGTTCAGCGTTGTACATAAAAAAAAACATAT [XGTACX_site5974],9.49
16,GTTTAAAGTTGAACAAGTACACATTTATATAAGGCA [XGTACX_site351],9.57
17,TTTATTTATTACTAAAGTACTAAATCATATAATTAT [XGTACX_site3654],9.46
18,TTTTGAAAGTTTTTGTGTCCACATATATTTATATAT [XGTACX_site6563],9.82
19,TAAAAATATAAAACATGTACATATATGCATATATTT [XGTACX_site8093],9.73
20,ATTATAAACCAGAATGCATGTAGATGAATCTTTTCT [TGCATGCA_site284],9.6
21,ATATCATAAGTAGAAACACACAATTAGATTTTTTCC [CACACA_site2353],9.78
22,TTTTATAAATACACACGTACGTGTGCATAACGTTTT [XGTACX_site3199],10.1
23,AAAAAAAATAATATTGTACACACATAAATTCTTTGT [CACACA_site8654],10.1

row,Sequence,gcPBM binding intensity (ln)
1,TACTTTTTAAAAATGTTTTATATAATAAAAAGATAT [CACACA_negctrl_site678],9.47
2,TAAGCCTTTCTATTATGTACTTATTAAAACATGTAG [XGTACX_site8022],9.41
3,CTTATATTAAAACACACACACGCACAAAACAGAAAT [CACACA_site1462],11
4,AAATTTATTTCTGTGTGTCCACAAAAAAAAATCTTT [XGTACX_site691],9.55
5,TTTTTTTTTTTCAATAGTACTTTCCATTTACATATA [XGTACX_site3889],9.71
6,TAATTGAGCAAATGAGTGCACAGCATAAAGTATAGT [GTGCAC_site9497],10.1
7,AAATTTAAAATAAGTAGTACATAATATAAATAAATA [XGTACX_site3592],9.67
8,TATAAAAGAAACTATACACACATATTTTAAATATTT [CACACA_site2753],9.8
9,GTACTTGTATTATGCACACATATAATTAAACATATA [CACACA_site3312],9.87
10,TAATATTATATTATATGTACATAACAAATTATATTT [XGTACX_site4296],9.67
11,ATGAAAAAATTTAAATGTACATTACATATATTTATT [XGTACX_site2524],9.61
12,TTTTTTTCTCTTTTTATTACAAAAAGGGTTTATATA [TGCATGCA_negctrl_site75],9.25
13,ATGAGTAACATATTTGTGCACATATGGTTATTTTTA [GTGCAC_site9541],9.65
14,AAAAAAAATTCCAGTACACACAATAATACTAAAAAT [CACACA_site2801],10
15,AAAAATTACAAAAATGCATGTACTATTCATATTTTT [TGCATGCA_site918],9.79
16,ATGCATATAATTATATGTACATATAAGAAATATATA [XGTACX_site517],9.78
17,CATTTATTATGATAAAGTACTTAAATTAATAGATAA [XGTACX_site3566],9.37
18,ATAAAAAACAGTGGCACACATTATGTATCCACCTTT [CACACA_site5958],9.75
19,CATATAAAGATATGAACACACAAAAAGAATATTTCC [CACACA_site6811],9.88
20,AATAATAAAAAATACACACACATATAAATATATTAC [CACACA_site7597],10.3
21,AGGACACATATATGCAAAAAAAAAAAAAAAAAAAAA [TGCATGCA_negctrl_site427],8.93
22,TTCCGAACGACCTAAAGTACATGTATTTCAACTTTT [XGTACX_site1220],9.76
23,TATGCACACAATATATGTACTTATATATTTTAAAAA [XGTACX_site5482],9.7

row,Sequence,gcPBM binding intensity (ln)
1,TTTTATAAAAAAACTATAAAAATATATAGTACTTAA [CACACA_negctrl_site440],9.21
2,TCTTTTTTTTTTTTTTTTTCTTCTTCTCAATATAAA [GTGCAC_negctrl_site303],9.44
3,TAGTGTATGATAATATGTACATACATTTATATAATA [XGTACX_site6330],9.78
4,CATAATATGTGGACTTTACACACTTGTTTTAAAATT [CACACA_site819],9.73
5,TATATGTATAGAAAATGTACATATAAATATATATAT [XGTACX_site3420],9.88
6,TAAAATTAATTTCTGTTGCACTTATTATTAATTAAC,9.7
7,TTTTTTTTTTTTTGCACACACCATATTTATAGAAAT [CACACA_site5772],10.2
8,ATATTATACCCGTGTACACATTATAACCATATATAA [CACACA_site5933],9.74
9,AAATATATCATACAAAGTACTTGGAATTAATATATA [XGTACX_site8907],9.64
10,AATATAATATAATGCACACATAAAACAAAAAAAAAA [CACACA_site3012],9.92
11,TAATTTTTCCAACTTTGTACAGATATATTAATAAAA [XGTACX_site7856],9.06
12,TCTTTTAAATAACAACATAAATAAATAAATAAATAA [GTGCAC_negctrl_site319],9.28
13,GTTGATACATGAAGCTGTACATAATATTTGTCATTT [XGTACX_site8628],9.73
14,GTCATATTAATATGTACACACATATTTATATTTATA [CACACA_site6798],9.83
15,TTTTTACTATTTATATGACTAAAAATATATTGAATA [CACACA_negctrl_site188],9.42
16,TAAATTAATAAACAAGTGCATATATATATATATATA,9.5
17,CAAGCACACGGACACACACACACACGCGCACGCACA [CACACA_site6307],11.3
18,TTTTATGTAACATCACGTACTTATATTTAAGTATTC [XGTACX_site7459],9.74
19,CAATTTATTTTTATTACACACTATCCAAGTAATTTC [CACACA_site7402],9.78
20,TATAGCAAAAAATTTACACACATGTTTTTTCTATAC [CACACA_site325],9.9
21,GGCATTTTATGAAGTAGTACCATAAATATTAAAGAT [XGTACX_site5287],9.59
22,ATGTTTTATAAAAGGCGTACACATATGCTTAAGTAA [XGTACX_site6232],9.71
23,CCTTTATTTTATATGTGTACTAAATTGTATATATAT [XGTACX_site8717],9.75

row,Sequence,gcPBM binding intensity (ln)
1,CTGAAGGAAAAAGAAAGTACTTTTTTTTTTTTGAAG [XGTACX_site5973],9.05
2,AAAAAAAAAATATCATGTACAAATATAATAAAATTT [XGTACX_site3896],9.79
3,AAATTTTTTATGAACACACAAATACACGCACTCAAA [CACACA_site7286],10.1
4,AATAATAAAATAAAGGCATGCACAATATGCTATAAA [TGCATGCA_site645],10.1
5,TAAAATATATAAAACTGTACATTTTAAAGGCACAAC [XGTACX_site8342],9.98
6,AATTAAAATAGTAATACACACTTCATAGGAAATGAT [CACACA_site5045],9.75
7,TATGTATCAAATAAATGTACATATATATATATATAT [XGTACX_site2189],9.59
8,TGATTAAATAAATATATATATTTATATATTATACAG [CACACA_negctrl_site1596],9.4
9,TATATATATATATATGTGCACTGGACATATTTTTAT [GTGCAC_site9721],9.89
10,GCTCTATCAAAAAAATGTACACATATTATCATTCAT [XGTACX_site143],9.64
11,CAAATAAATATTAAAAGTACACACAGATACACTAAT [XGTACX_site3749],10.2
12,TTTTTATTTAATAGTTGTACATTGAAAAATATGTAT [XGTACX_site3025],9.41
13,AATATTTATATTTAGTGTACAGAAATAAAAAAAAAA [XGTACX_site6066],9.68
14,CAAAAAAAAAAAAAAACACACATTAAATTAGAAAGA [CACACA_site7271],9.66
15,ATATACATTTAAATGTGTACATAATAAAATAAAAAA [XGTACX_site8170],9.54
16,GCTAATTTATTTTGCAGTACATATATAATAATATAT [XGTACX_site478],9.4
17,ACCCATAAAAATTATGCACACTTAATAAAGCGAAAT [CACACA_site5722],9.81
18,ATAATTTATTTTAAAAGTACTCAATTTGCTTTTCTC [XGTACX_site5749],9.48
19,TCCTCATTTTATCATACACACTTGTTTATATGGGTG [CACACA_site4650],9.74
20,TTTACAAAAAATTATACACACACGTACAGATAAATA [CACACA_site4678],10.1

# Reference: the supplement of paper PMC11417369
